Measured values published in PubChem BioAssay AID1346428 (National Center for Advancing Translational Sciences (NCATS), 2018).
Among all 48,000 compounds or so, about 1,200 (2.5%) were called active. Another 2% or so got no clear call; they are omitted.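 How the source made its calls: active means activation of at least 60% and not above a set upper limit (about 1 call in 100 departs from these limits); inconclusive means activation of 40% to 60%, or above that upper limit; inactive means activation under 40%.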 The list shows a part of the results.

Each molecule was assayed against Probable G-protein coupled receptor 32 (Homo sapiens) (UniProt O75388) (assay: qHTS for Agonists of Human Resolvin D1 Receptor DRV1). Settings: CHO-K1 GPR32 beta-arrestin PathHunter luminescence, 90 min; at 76.9 µM; active compounds read high; zero percent set by DMSO-only wells.
Sequence of UniProt O75388 (O75388 whole entry, looked up): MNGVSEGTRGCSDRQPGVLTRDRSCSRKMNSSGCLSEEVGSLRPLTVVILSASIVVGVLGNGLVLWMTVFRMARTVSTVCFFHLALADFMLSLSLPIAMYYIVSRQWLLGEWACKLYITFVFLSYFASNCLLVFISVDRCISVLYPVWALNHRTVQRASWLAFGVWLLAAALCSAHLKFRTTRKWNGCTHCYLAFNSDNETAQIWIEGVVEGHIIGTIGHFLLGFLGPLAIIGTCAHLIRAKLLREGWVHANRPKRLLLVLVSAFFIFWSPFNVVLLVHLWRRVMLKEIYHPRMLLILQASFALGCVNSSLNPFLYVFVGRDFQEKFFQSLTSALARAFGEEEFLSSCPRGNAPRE
In short: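 Step 1: seed CHO-K1 GPR32 beta-arrestin cells, 2,500/well, overnight at 37 °C. Step 2: add compounds, 90 min at 37 °C. Step 3: detection reagent, 1 h ambient, then luminescence.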
Further: 0% is about no effect.

activation, inactive:
CCCCCCc1c(C)c2c(cc(C)c3c(C)c(C)oc32)oc1=O -3.16%
CC(=O)c1cccc(NC(=O)C2=CC(c3ccc(F)cc3)=NS(=O)(=O)N2C)c1 -8.35%
CCCCN(C(=O)Nc1ccc(Cl)cc1)C1CCN(C(C)=O)CC1 -1.64%
Oc1c(C(c2ccccc2F)N2CCC3(CC2)OCCO3)sc2nc(-c3ccco3)nn12 (stereo not drawn) 11.5%
CCN(c1ccc(Cl)cc1)S(=O)(=O)c1nnc(NC(=O)c2ccco2)s1 26.2%
COc1ccc(OC)c(CNC(=O)c2ccc(Sc3ccc(Cl)cc3)c(NC(C)=O)c2)c1 -11.4%
O=C(NCCc1ccccc1)c1ccc(Cn2c(=O)c3cccn3c3cccnc32)cc1 -20.3%
Cc1ccc2onc(CC(=O)N3CCN(c4ccc(Cl)cc4)CC3)c2c1 -27.5%
O=C(NC1CCCCC1)c1ccc(CSc2nc3ccncc3n2Cc2ccccc2)cc1 31%
COC(=O)c1cc2oc3ccccc3c2n1CC(=O)Nc1ccc(OC)c(OC)c1 0.157%
CCN1C(=O)C=CC1=O 5.21%
Cc1ccc(NC(=O)Cn2c(=O)n(CCCC(=O)NCc3ccc4c(c3)OCO4)c(=O)c3ccccc32)cc1 -12%
CCOc1cc(C2C(C(=O)Nc3ccccc3)=C(C)Nc3ncnn32)cc(Br)c1O (stereo not drawn) 31.7%
COc1ccc(NC(=O)CN2C(=O)CSc3ccc(S(=O)(=O)N(C)C)cc32)cc1OC -5.63%
Cc1cc2c(cc1S(=O)(=O)N(CCO)Cc1ccccc1)OCC(=O)N2 -9.17%
CCNS(=O)(=O)c1cc(-c2nnc(Nc3cccc(C(F)(F)F)c3)c3ccccc23)ccc1C -23.4%
O=C(NC(Cc1cc(=O)[nH]c2ccccc12)C(=O)O)c1ccc(Cl)cc1 (stereo not drawn) 1.94%
Cc1ccc(NC(=O)Cn2c(CCC(=O)O)ccc2-c2cccs2)cc1Cl -5.7%
CCc1cccc(CC)c1N(COC)C(=O)Cn1c(CC)nc2ccccc21 -22.1%
Cc1ccc(C)c(NC(=O)CCS(=O)(=O)c2cccc3nsnc23)c1 3.8%
CCc1ccc2nc(N3CCN(C(=O)c4ccccc4)CC3)sc2c1 22.9%
Cc1ccc(C)c(N2CCN(C(=O)C3CCN(S(=O)(=O)c4ccc5[nH]c(=O)oc5c4)CC3)CC2)c1 34.3%
Cn1c(=O)oc2cc(S(=O)(=O)N3CCCC(C(=O)N4CCN(c5ccc(Cl)cc5)CC4)C3)ccc21 (stereo not drawn) 0.554%
